In assay [1] the target is hAG-NDP52 (human) (UniProt Q13137). Description: Fluoppi (phase-separated fluorescent foci in cells); hAG-tagged autophagy adaptor and HA-Ash-6Ub transiently co-expressed in HeLa (WT, Penta KO, FIP200 KO, ATG5 KO, ATG9A KO) or HCT116 (WT, TBK1-/-) cells; foci formation and incorporation of a third protein into the foci read by immunostaining and confocal microscopy; some samples with 2 µM BX-795 for 15 h.

Protein sequences, listed by entry. Tags and fused reporters are not part of them. Lines headed by an entry give the natural chain unless they say otherwise; changes in a name come on top. Chains listed by the source or under a name are the forms on record and can include a tag or linker.
UniProt Q96CV9: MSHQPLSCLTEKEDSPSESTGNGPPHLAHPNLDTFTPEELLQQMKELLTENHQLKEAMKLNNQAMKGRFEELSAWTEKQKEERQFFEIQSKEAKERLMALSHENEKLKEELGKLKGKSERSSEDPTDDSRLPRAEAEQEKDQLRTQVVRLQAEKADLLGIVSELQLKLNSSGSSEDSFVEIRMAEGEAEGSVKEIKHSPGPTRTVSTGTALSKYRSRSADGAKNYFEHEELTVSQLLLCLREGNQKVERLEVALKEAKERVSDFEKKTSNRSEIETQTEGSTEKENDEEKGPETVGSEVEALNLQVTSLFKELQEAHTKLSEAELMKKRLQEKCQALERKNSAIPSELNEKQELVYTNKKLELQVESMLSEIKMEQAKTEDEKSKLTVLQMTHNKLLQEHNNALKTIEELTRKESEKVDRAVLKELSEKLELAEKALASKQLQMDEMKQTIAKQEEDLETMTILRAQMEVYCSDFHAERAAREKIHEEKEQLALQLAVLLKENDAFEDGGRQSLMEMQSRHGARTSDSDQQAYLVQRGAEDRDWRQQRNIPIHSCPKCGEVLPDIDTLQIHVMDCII
3FLAG-hAG-OPTN(4LA, S473E) (Q96CV9, form named): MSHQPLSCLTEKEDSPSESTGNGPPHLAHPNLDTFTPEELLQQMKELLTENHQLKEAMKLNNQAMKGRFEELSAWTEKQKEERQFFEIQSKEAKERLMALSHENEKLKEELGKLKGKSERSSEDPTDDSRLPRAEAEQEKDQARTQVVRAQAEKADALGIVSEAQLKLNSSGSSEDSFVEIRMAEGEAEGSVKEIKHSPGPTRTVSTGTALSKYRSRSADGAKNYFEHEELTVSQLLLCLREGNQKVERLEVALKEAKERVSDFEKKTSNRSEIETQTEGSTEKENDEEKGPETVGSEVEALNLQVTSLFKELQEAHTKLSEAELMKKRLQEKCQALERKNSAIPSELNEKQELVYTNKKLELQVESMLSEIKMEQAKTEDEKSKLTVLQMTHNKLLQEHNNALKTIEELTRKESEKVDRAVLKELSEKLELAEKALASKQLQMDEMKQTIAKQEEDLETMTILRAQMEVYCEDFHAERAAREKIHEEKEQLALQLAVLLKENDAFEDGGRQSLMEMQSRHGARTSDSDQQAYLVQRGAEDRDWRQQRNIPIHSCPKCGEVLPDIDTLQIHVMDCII

Assay [2] concerns the target hAG-OPTN(S473E) (human) (UniProt Q96CV9). The description is as above.
In assay [3] the target is hAG-OPTN(M44Q/L54Q, S473E) (human) (UniProt Q96CV9). Described as above.
Assay [4] deals with hAG-p62 (human) (UniProt Q13501). The assay is described as above.
For assay [5], the target named is 3FLAG-hAG-OPTN(4LA, S473E) (human) (UniProt Q96CV9). As to the kind of experiment: co-IP; HeLa cells transiently expressing 3FLAG-hAG-OPTN and HA-Ash-6Ub; 1 mM DSP cross-linking, 1% NP-40 buffer (20 mM Tris-HCl pH 8.0, 150 mM NaCl, 1 mM EDTA), sonication, anti-DDDDK-tag gel 90 min at 4°C, immunoblot.
For assay [6], the target named is 3FLAG-hAG-OPTN(M44Q/L54Q, S473E) (human) (UniProt Q96CV9). The assay is described as above.

Results are given in words; binding and its absence hold for the method and conditions named. For part of these data: In cells and extracts the contact can be indirect. Some entries that bind do so weakly or less than the wild type.

B1: ATG9A (protein, UniProt Q7Z3C6 1-839)
chain: MAQFDTEYQRLEASYSDSPPGEEDLLVHVAEGSKSPWHHIENLDLFFSRVYNLHQKNGFTCMLIGEIFELMQFLFVVAFTTFLVSCVDYDILFANKMVNHSLHPTEPVKVTLPDAFLPAQVCSARIQENGSLITILVIAGVFWIHRLIKFIYNICCYWEIHSFYLHALRIPMSALPYCTWQEVQARIVQTQKEHQICIHKRELTELDIYHRILRFQNYMVALVNKSLLPLRFRLPGLGEAVFFTRGLKYNFELILFWGPGSLFLNEWSLKAEYKRGGQRLELAQRLSNRILWIGIANFLLCPLILIWQILYAFFSYAEVLKREPGALGARCWSLYGRCYLRHFNELEHELQSRLNRGYKPASKYMNCFLSPLLTLLAKNGAFFAGSILAVLIALTIYDEDVLAVEHVLTTVTLLGVTVTVCRSFIPDQHMVFCPEQLLRVILAHIHYMPDHWQGNAHRSQTRDEFAQLFQYKAVFILEELLSPIVTPLILIFCLRPRALEIIDFFRNFTVEVVGVGDTCSFAQMDVRQHGHPQWLSAGQTEASVYQQAEDGKTELSLMHFAITNPGWQPPRESTAFLGFLKEQVQRDGAAASLAQGGLLPENALFTSIQSLQSESEPLSLIANVVAGSSCRGPPLPRDLQGSRHRAEVASALRSFSPLQPGQAPTGRAHSTMTGSGVDARTASSGSSVWEGQLQSLVLSEYASTEMSLHALYMHQLHKQQAQAEPERHVWHRRESDESGESAPDEGGEGARAPQSIPRSASYPCAAPRPGAPETTALHGGFQRRYGGITDPGTVPRVPSHFSRLPLGGWAEDGQSASRHPEPVPEEGSEDELPPQVHKV
On to B1, for which the binding result is reported as “no binding” in assay [1]; “binds” in assay [2]; “binds” in assay [3]; “no binding” in assay [4]; “no binding” in assay [5]; “binds” in assay [6].
